Measured values: the supplement of paper PMC10126150
Values marked as one replicate rest on one cluster of the flow cell; about a third of the high ones do not repeat.

Tested on: ATP
Assay: switch fluorescence ratio, 500 uM ATP over buffer (Cy3 cluster intensity, sum of 5 cycles each) (fold (ratio)); higher = stronger signal-on switching upon ATP binding; sequences stand for … in TCGTCGGCAGCGTCAGATGTGTATAAGAGACAGTTTTTTTTTTTTTTTTTTTTTTTTT…TC
Details: aptamer strand: ATP DNA aptamer (quencher-CACCTGGGGGAGTATTGCGGAGGAAGG + anchor), 100 nM annealed; ATP concentration: 500 uM; one replicate
Summary of the method: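 Exposure to 500 uM ATP lasted 15 min at 22 °C before imaging, and a selection-buffer image was taken beforehand, for Cy3-labelled switching-strand clusters on a modified Illumina MiSeq flow-cell annealed to 100 nM quencher-labelled ATP aptamer. Five buffer/ATP cycles were run with NaOH stripping and re-annealing between them. The fluorescence ratio per cluster is summed target-cycle over summed buffer-cycle Cy3 intensity, averaged per switch-domain sequence. Clusters outside 100-1000 RFU were excluded.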

| Sequence | switch fluorescence ratio |
| --- | --- |
| CTTTTTAGTT | 0.961 |
| ACGGATTCTA | 0.984 |
| TTCGGAGTGA | 1.4 |
| GCTTGACGTG | 0.975 |
| TATTTTCATA | 1.11 |
| TACATAGTCT | 1.05 |
| TTCGGTTTGA | 0.979 |
| GGGGGGTGAT | 0.984 |
| TTCAATAATT | 0.974 |
| CGACGTAGG | 0.993 |
| TCTGTCAGAT | 1.03 |
| TCCCTCTATT | 1.02 |
| ATTTTATCAT | 1.02 |
| CTCGCTGGGG | 1 |
| TGCTTCTTA | 0.997 |
| CGTGTGTCGA | 1.03 |
| CGGACCCATT | 1 |
| GGTTCCAAGT | 1.07 |
| AGTATGATTA | 0.977 |
| GCGGCACATT | 1.02 |
| TCCCCTTCTT | 1 |
| CCTGGGTCTC | 3.18 |
| TCCGATTTTC | 1.1 |

| Sequence | switch fluorescence ratio |
| --- | --- |
| TTATGTTGCT | 0.98 |
| TTACGCTCAA | 1.16 |
| CATTAATGCA | 1.03 |
| GGTCAGACGC | 1.06 |
| ACGGGACCGA | 0.992 |
| GTGGTGCCAG | 0.999 |
| ATACAGAGGC | 1.02 |
| GCACTGCAGG | 1.02 |
| AACCAGGGA | 1.08 |
| GGCACTGTCG | 1.02 |
| GCGGTCTTTG | 1.01 |
| AACGGGAAAA | 1.1 |
| CCAATTTGGT | 1.01 |
| TATAGATAG | 1.01 |
| TAGATCCATG | 1.01 |
| TAATGTCATG | 0.994 |
| CCCATGGTCG | 1.17 |
| TTGCGACTCA | 0.966 |
| GGCGCGGATA | 1.05 |
| GTTTCCTCGC | 2.8 |
| TTCCTTACCT | 1.24 |
| TCTATTAGCG | 0.941 |
| TGTGTCGCCA | 1.03 |

| Sequence | switch fluorescence ratio |
| --- | --- |
| GGTTGCGACT | 1.02 |
| GACGGGGTAA | 0.959 |
| ACAACTCCCT | 1.23 |
| GATAGGTGTA | 0.964 |
| TTAGTCAACT | 1.05 |
| ATACAAGCTC | 1.06 |
| GGATATTTGA | 1.02 |
| CAGGGTCCCG | 1.05 |
| ACCGTCACCA | 1.3 |
| ATGCAAAAAT | 0.956 |
| AAAAGAATCA | 1.03 |
| TCAAGCCAGA | 1.03 |
| GTAGGTGGAG | 0.974 |
| CCATAACACG | 1.05 |
| TTTGCGGCCA | 0.998 |
| TGTCGGTACA | 1.05 |
| TACTGATGAG | 1.03 |
| ACAGCCTAGT | 1.06 |
| CAATGAGAGT | 0.999 |
| GTGAGACTAG | 1.04 |
| CATCTGTCC | 1.1 |
| AGTTTACGG | 1.01 |
| CGATAAGTTG | 0.986 |

| Sequence | switch fluorescence ratio |
| --- | --- |
| CCGAGACGCC | 1.34 |
| AGCATATTCG | 1.05 |
| CCGCTATAAA | 6.09 |
| TCCGATTAGG | 1.02 |
| TGGAACCGCG | 1.05 |
| GGGGTCCAGG | 1.18 |
| GCTGTTTGAG | 0.986 |
| GAGATATCCT | 0.999 |
| AAGAGGCTGA | 1.02 |
| TCTCGAGGGC | 0.989 |
| AAACTTCCGG | 1.57 |
| CGACTTGCGC | 1.09 |
| TGGCCGATTG | 0.999 |
| AATCAGGATG | 0.985 |
| ATTACTGCGC | 1.24 |
| GCATGGACTT | 1.02 |
| TGTTCGCCG | 1 |
| ATTAAATTAC | 1.36 |
| GAATTTAAGG | 0.997 |
| TTTAGCCGG | 1 |
| ACATTAGTCT | 1.03 |
| CGCCTAACTG | 1.02 |
| GTTCCTACTC | 1.01 |

| Sequence | switch fluorescence ratio |
| --- | --- |
| AGCCCGTGAC | 1.08 |
| ACAGCCAGCC | 1.1 |
| CCGGTTCTTT | 1.05 |
| TAGGCGAGCA | 0.983 |
| GGGTATGGT | 0.95 |
| AGGCCTCTTG | 1.01 |
| TTAAACTCCC | 1.03 |
| CCCTCACGCT | 2.21 |
| TAATTACTA | 1.06 |
| GTGCCATTCT | 1.05 |
| GAAACATCAA | 1.06 |
| CATTTGAGGC | 1.04 |
| TTTTGTAACC | 1.01 |
| AAGGTTAACC | 0.957 |
| CACTTGCAGG | 1.03 |
| GCGAGTGTTA | 0.99 |
| TTACTTACAC | 1.33 |
| CGGCTCCGGA | 1.03 |
| GGGGAAGCGT | 0.976 |
| GAACGGCATA | 1.19 |
| ACAGCTACTT | 1.18 |
| AGCGAAAAAT | 1.1 |
| GACTGGTACC | 1.07 |

| Sequence | switch fluorescence ratio |
| --- | --- |
| GGCTTTAGAT | 1.03 |
| CGGGGAG | 1 |
| TAAAAACAGA | 1.23 |
| AGTCTCGCAT | 1.17 |
| GACACCCGTA | 0.994 |
| CAAAGGAACG | 0.937 |
| TGGACGATGT | 1.02 |
| TCACACACTG | 1.38 |
| GAGTAGTAGC | 0.959 |
| GCGTGGTCCG | 0.993 |
| GTAAAAACGC | 1.07 |
| GCGCAAGGAT | 1.04 |
| ACGGGCGCGA | 1.02 |
| TAATGAGAGA | 0.958 |
| AGTCATATTG | 0.99 |
| AGCAATTTCA | 1.33 |
| CCCGCCCTAA | 1.25 |
| GCAGACATAT | 0.992 |
| AACGGGGCG | 0.955 |
| GTCCGCGGCG | 0.989 |
| CGTAAAGGCA | 0.946 |
| AGGGCCGGCA | 0.993 |
| AAATGGAATC | 1.07 |

| Sequence | switch fluorescence ratio |
| --- | --- |
| AATTTTACAC | 1.03 |
| CTCATGAGCT | 0.943 |
| AAAAGTTCCG | 1.03 |
| GATATGCATC | 1.02 |
| CATACGATAC | 2.95 |
| TATCGATTGC | 0.953 |
| TTACTGTAA | 1.11 |
| ATCTAGTATG | 0.994 |
| ATTTGTTTT | 1.07 |
| TGGACTTAGA | 0.966 |
| CGAGCCAGTG | 1.13 |
| CCTGAAGAGC | 1.02 |
| ATGCGGAGGT | 1.02 |
| ATAGTAATTT | 0.956 |
| CACGGAACAT | 1.02 |
| GTGGCTAGG | 0.984 |
| ATACGGGGGC | 0.983 |
| TCCTTTCCCA | 1.04 |
| CGGCCGGTTA | 1.04 |
